Here are results for 1 compound from PubChem BioAssay (NCI).

Some compounds were tested as several samples or in several runs, with calls that do not always agree.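 Values shown are percent growth following 48 h exposure of cells in 96-well plates to a single concentration of compound; below 10 was considered active.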 Not every entry of the source has a single result; some have several. The list is limited to them. The source may hold further records. This drug was run again and again over the years, at the concentration stated with the values; each value is one run. Signs of the kind (2×) stand for listed records that agree.

One assay concerns UO-31 renal. The experiment in a line: NCI-60 one-dose screen, 48 h (100 = growth as untreated, 0 = no growth, -100 = all killed). The settings on record: 25 µM.
The next assay relates to TK-10 renal. The assay is described as above. The settings on record: 0.25 µM.

Take `COc1cccc2c1C(=O)c1c(O)c3c(c(O)c1C2=O)C[C@@](O)(C(=O)CO)C[C@@H]3OC1CC(N)C(O)C(C)O1` (stereo not given in full): the growth result in the assay with UO-31 renal (runs of 1998) is “active: -11.3 (2×), -22.7, 1.92, 0.629, -9.3, -10.2, -49.8, -27.5, -35.1, -22.8, -24.8, -10.1, -10, -24.1, -14.2, -18.2, -26.5, -15.6, -10.3, -30.6, -31, -24.2% and inactive: 13.8%, 11.1% (2×)”; in the assay on UO-31 renal (runs of 1999), “active: -8.57, -30.7, -0.186, -37.2, -27.3, -38, -100 (4×), -83.6, -92.8, -97.3, -87.9, -36.8, -94.2, -95.9, -96%”; with UO-31 renal (runs of 2000), “active: -71.3, -100, -77.1, -94.9%”; in the assay with TK-10 renal (runs of 2006) it was “inactive: 73.1%, 65.9%”; with TK-10 renal (runs of 2007) it was “inactive: 66.9, 39.2, 73.5, 58, 58.5, 61.3, 75.9, 64.2, 59.3, 71, 76, 70.2, 91.4, 51.7, 41.7, 62, 20.7, 62.8, 127, 82.1, 67.2, 46, 64.9, 76.7, 68.6, 78.7, 60.9, 68.1, 51, 70.3, 76.5, 74.1, 63.8, 60.8, 72.3, 55.1, 57.9, 53.4, 55.6, 56, 70.9%”; in the assay with TK-10 renal (runs of 2008), “inactive: 58.8, 61.9, 32.8, 51.8, 71, 71.9, 76.5, 73.6, 68.7, 73.2, 68.8, 67.8 (2×), 65.1 (2×), 70.9, 37, 71.2, 61.5, 59.7, 66.3, 41.9, 58.6, 53.5, 65.9 (2×), 82.7, 68.6, 63.1, 92.2, 44.6 (2×), 134, 64.1, 49.1, 38.9, 47.6, 43.3, 35.1, 47.5, 33.7, 44.5, 76, 70.5, 81.8, 70.8, 91.4, 77.7, 51.2, 60.7 (2×), 79, 64.2, 58.5, 46, 83.1, 61.8, 67.3%”. Further, the growth result with TK-10 renal (runs of 2009) was “inactive: 72, 68.4 (2×), 59.5, 70.2, 62.9, 65.6 (2×), 66.5, 76.2, 79.7, 62.4, 65 (2×), 62, 61.5, 60.6, 67.4 (2×), 67.7, 65.2 (2×), 77.4 (2×), 70.1, 78.4, 55.2, 74.6, 62.7, 58.1, 55, 61.7 (2×), 59, 63.3, 65.4, 60.7, 55.8, 37.7, 58.3, 59.9, 55.1, 68.1, 76.5, 61.8, 52.5, 55.5, 69.7, 73.2, 80.2, 25.1, 50.2, 30.6, 34.5, 54.3, 33.8, 51, 35.2, 67.2, 67, 80.7, 69.1, 79, 80.1, 63.8, 61, 45.5, 48, 54.5, 44.9%”; in the assay with TK-10 renal (runs of 2010), “inactive: 65.9, 67.9, 46.8, 64.5, 67.5, 59.7, 83, 77.9, 79.1, 85.8, 73.8, 55.5, 57.5, 64.9, 54.3, 55.7, 66.7, 52.6, 40.8, 36.7, 29.3, 31, 48.5, 52, 29.7 (2×), 39.2, 30.5, 41.2, 46.5, 41, 27.3, 32.7, 38.2 (2×), 51.1, 69, 66.5, 70.5, 56.3, 50, 63.1 (2×), 67.2, 49.6, 30.9, 40.1, 54.5, 53.1, 46.1, 33.7, 44.3, 56, 54.2%”; with TK-10 renal (runs of 2011) it was “inactive: 62.3 (2×), 52.7, 42.5, 51.8, 70, 63 (2×), 53, 26.4, 73.5, 42.9, 65.5, 60.6, 68.7, 74.8, 73.6, 69.1, 78.6, 72.2 (2×), 76.9, 71.6, 78.7, 74.2, 89.2, 60.2, 59.2, 66.5, 54.5, 58.1, 65.1, 86.2, 54.3, 52.3, 66.7, 68.2, 64.7, 54.9, 85.8 (2×), 76, 61.8, 76.7, 80.4, 85.1, 78, 93.4, 59.6, 56.3, 50.4, 57.8, 53.8, 56.6, 65, 71.3, 59.1, 57.6%”; in the assay with TK-10 renal (runs of 2012), “inactive: 75.1, 60.4, 71.7 (2×), 75.5, 55.9 (2×), 42.7, 72.7, 79.4, 74.9 (2×), 77.5, 82.7, 58.1, 41.7, 48.8, 43.7, 57, 49.9, 43.1, 54.2, 58.6, 68.9, 63, 62.8, 67.6, 67.5, 83.2, 77.8, 78.6, 82.4, 64.6, 71.2 (2×), 60.2, 82.5, 57.6, 56.6, 62.1, 74.2, 66.5, 71, 74.1, 67.9, 79.3, 83.6, 80.6, 76.2, 70.9, 76.5, 58.2, 59.1 (2×), 50.6, 65.8, 60.7, 67.4, 72.3, 70.1, 53.2, 49.4, 68, 70%”; in the assay on TK-10 renal (runs of 2013), “inactive: 48.7, 76, 69.1, 51.5, 54.8, 65, 65.2 (2×), 70.5, 72.9, 71.7 (2×), 67.4, 76.3, 64.6, 70.1, 49.7, 64.2, 73.9, 70.7 (2×), 77.4, 71.5, 74.1, 70, 73, 77 (2×), 66.8, 84.6, 70.2 (2×), 73.7 (2×), 60.6, 68.8, 65.6, 67.9, 72.1, 57.9, 68.4, 63.4, 62.2, 70.4, 66.9, 60.4, 59, 80.4, 80.5, 76.5, 69, 62.8, 72, 69.6, 65.7, 54.5, 65.1, 66.6, 47.1, 71.6, 62.3, 78.1, 68.3, 62.9, 60.8, 81.8%”; in the assay on TK-10 renal (runs of 2014), “inactive: 62.9, 61.7, 66.6 (2×), 63.1 (2×), 63, 68, 65.5, 66.3, 38, 60.7, 68.6 (2×), 70.1, 72.4, 68.7 (2×), 72.8, 76.3, 76, 86.1, 85.7, 67.2 (2×), 63.7, 66.8, 66, 55.3, 57.2, 59.9, 56.8, 55.5, 53.8, 63.5, 62.5, 56.4, 57.3 (2×), 66.9 (2×), 74.5, 72.3, 71.7, 78.6, 76.9, 79.1, 75.6, 70.5, 70.6, 74.2, 90.7, 89.6, 84.3, 58, 51.3, 43.2 (2×), 43.8, 64.8, 30.3, 50.9 (2×), 57.1, 56, 33.6, 53.5, 55.7 (2×), 59.1, 61.6, 51.1, 58.9, 48.1, 57.5, 34.9, 51.8, 50.8, 62.3, 70.7, 45.9, 46.1, 54.4, 45, 64.9%”. The growth entry in the assay with TK-10 renal (runs of 2015) was “inactive: 66.7, 59.2, 43, 68.7, 57.5, 51.7, 57.4, 61.9 (2×), 60.4 (2×), 49.1, 45.6, 53.8, 53.2, 55.6 (2×), 62.9 (2×), 59.3, 50.2, 46.3, 60.9, 41.6, 56.2, 52, 57.8, 49.3, 47.8, 46.5, 55.9, 52.5, 54.7, 47.3, 48.8, 48.2, 52.3, 53.6, 58.6, 54.2, 51.9, 56.6, 43.7, 62, 59, 65.8, 59.7, 65.6, 45.3, 62.3, 66.9, 72.1, 74.7, 54.6, 55.1, 70.7, 71.1, 62.8, 56.7, 57.2, 47.4, 55, 50.1, 63.4, 70.8, 61.3, 44.6, 75.3 (2×), 75.8, 69.6, 70.1, 76.3, 71.6, 79.6, 76.7, 77.3, 70, 80.2, 81.2, 85.4, 51.3, 33.5%”; with TK-10 renal (runs of 2016), “inactive: 59.3 (2×), 54.4, 59 (2×), 47.3, 60.3, 77.8, 66.2 (2×), 72.9, 69, 70.2, 59.4 (2×), 61.8, 74.7, 73.7, 64.8, 55, 53.2 (2×), 51, 34.2, 52.6, 46.2, 53.5, 53.6, 51.4 (2×), 51.1, 50, 53.3, 53.8, 67, 64.6, 64.1 (2×), 66.9, 62.9, 73.2, 75.5 (2×), 71.9, 68.8, 72, 69.3, 71.4, 67.3, 58, 58.8, 67.9, 72.1, 58.5, 56.7, 61.9, 71, 68.2, 80.5, 81.9, 65.8, 71.2, 78.4, 78.9, 80.3, 83.6, 76.9, 79.3, 56.1, 50.7, 61, 60.6, 61.3, 48.4%”; in the assay with TK-10 renal (runs of 2017), “inactive: 61.5 (3×), 60.3 (3×), 51.5, 62.1 (2×), 58.5 (2×), 57.6, 59.9 (3×), 55.9, 49.8, 55.3, 57, 61, 63.3, 58.9 (2×), 64.2, 57.9, 58.3, 59.2, 59, 56.9, 51, 50.7, 58.8 (2×), 52.8, 49.5, 44.9, 54.2, 59.7, 54.5, 55.4 (2×), 53.1, 62, 56.3, 57.4, 52.3 (3×), 54.8, 49.1, 59.4, 58.6, 63.9, 68.3, 59.8, 67.1, 65, 51.6, 55.1, 60.4 (2×), 54.7, 43.5, 48.8 (2×), 56, 56.1, 59.3, 56.5, 62.2, 62.8, 63, 62.6, 64.1 (2×), 73.5, 70.4, 67.7, 63.1, 54.6, 44.8, 39.6, 76.2, 71.1, 51.9, 46.4, 53.8, 44.5%”.
